Screen size: about 340,000 compounds; about 12,000 (3.5%) were called active. The inconclusive results got no clear call from the source; some entries with a clear call stand among them for comparison. Calls come from the whole dose curve; as a rule, active = well fitted inhibition curve with a large enough effect; inconclusive = small, poorly fitted or top-dose-only effect, or another doubt; inactive = no such curve, though single readings can be large or run the other way. Potencies of inconclusive entries are left out as doubtful fits.
Assay: qHTS Assay for Inhibitors of Hepatitis C Virus (HCV)
Conditions: Huh7.5.1 HCVcc-Cre (HCVcc is cell-culture hepatitis C virus) infection, luciferase reporter, 44 h; activity change, negative = inhibition: at 41.8 µM (top of the series) unless noted
Outline: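 Cells seeded at 1,000/well and cultured 4 h, then compounds added followed by HCVcc-Cre virus (~0.5 moi). After 44 h further culture, luciferase substrate was added, plates held 15 min at room temperature, and luminescence read for 15 sec.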
With CCN1CCc2c(sc(NC(=O)COc3ccccc3)c2C(=O)OC)C1 the Potency was inconclusive [inhibitor, partial curve]. With O=C(Nc1ccc(F)cc1)C(c1ccccc1)N1CCN(S(=O)(=O)c2ccc3ccccc3c2)CC1 (stereo not drawn) the “activity change, negative = inhibition” value was inactive: -3.87%. For CCn1c(=O)n(CC)c2cc([N+](=O)[O-])c(N3CCNCC3)cc21, the Potency was inconclusive [inhibitor, single point]. For COc1ccc(NC(=O)CN(C)C(=O)c2sc3cc(Cl)ccc3c2Cl)cc1, the Potency was inconclusive [inhibitor, single point]. In the case of O=C(O)C(=O)/C(=C\c1cccc2ccccc12)c1ccc2ccccc2n1, the “activity change, negative = inhibition” value is reported as inactive: -5.76%. In the case of CCC(CO)Oc1cc(NCc2ccccc2Cl)c2ncn(C(C)C)c2c1 (stereo not drawn), the Potency is reported as active: 2.24 µM. With Cc1ccc(OCC(=O)N2CCN(c3nnc(-c4ccccc4)c4ccccc34)CC2)cc1 the Potency was inconclusive [inhibitor, single point]. With COc1ccc(C(=O)Nc2ccc(SC(F)F)cc2)cc1 the Potency was inconclusive [inhibitor, partial curve]. With CCS(=O)(=O)NCc1ccc2c(c1)cc(C)n2C the Potency was inconclusive [inhibitor, single point]. With CC(=O)c1ccc(N2CCN(C(=O)C3CCCN(S(=O)(=O)c4cnc[nH]4)C3)CC2)cc1 (stereo not drawn) the “activity change, negative = inhibition” value was inactive: -4.99%. In the case of COc1ccc(N2CCN(C(=O)c3oc4ccccc4c3NC(=O)Cc3ccc(OC)c(OC)c3)CC2)cc1, the Potency is reported as inconclusive [inhibitor, partial curve]. For CN(C)C1(CNC(=O)Nc2ccc(Cl)c(Cl)c2)CCCCC1, the Potency was inconclusive [inhibitor, partial curve]. With C[C@H](CO)N1C[C@H](C)[C@@H](CN(C)S(=O)(=O)c2cccs2)Oc2ccc(NC(=O)Cn3cnnn3)cc2C1=O the “activity change, negative = inhibition” value was inactive: 12.6%. With Cc1cc(=O)oc2cc(OCC(O)CN3CCc4ccccc4C3)ccc12 (stereo not drawn) the Potency was inconclusive [inhibitor, full curve]. In the case of OCCC1CN(Cc2ccc3cc(Cl)ccc3n2)CCN1Cc1ccsc1 (stereo not drawn), the Potency is reported as inconclusive [inhibitor, single point]. For CC(=O)c1cccc(OCC(=O)c2cc(C)n(-c3cc(C)on3)c2C)c1, the Potency was inconclusive [inhibitor, partial curve]. In the case of COc1cccc(CNC(=O)C2CCN(S(=O)(=O)c3ccc4c(c3)NC(=O)C(C)S4)CC2)c1 (stereo not drawn), the Potency is reported as inconclusive [inhibitor, single point]. For COc1ccc(CCNC(=O)C(=O)NCC2OCCN2S(=O)(=O)c2ccc(Br)cc2)cc1OC (stereo not drawn), the Potency was inconclusive [inhibitor, partial curve]. In the case of O=C(N/C(=C\c1ccccc1)C(=O)N1CCCCC1)c1ccco1, the “activity change, negative = inhibition” value is reported as inactive: 8.12%. For Cc1cc(C)n(S(=O)(=O)c2cc(Cl)ccc2Cl)n1, the “activity change, negative = inhibition” value was inactive: 20.4%. For Cc1ccc(NC(=O)N2CCCN(Cc3ccc(F)cc3)C2)cc1C, the Potency was inconclusive [inhibitor, single point]. For CC(Sc1nc2ccccc2c(=O)n1CC1CCCO1)C(=O)N(C)Cc1ccccc1 (stereo not drawn), the Potency was inconclusive [inhibitor, full curve]. In the case of Cc1nc(NC(=O)CN(C)S(=O)(=O)c2ccc(Cl)cc2)sc1C, the “activity change, negative = inhibition” value is reported as inactive: -3.57%. In the case of Cc1ccc(OCCNC(=O)CCNS(=O)(=O)c2ccc(Br)cc2)cc1, the Potency is reported as inconclusive [inhibitor, single point]. For Cc1cc(NC(=O)CCSc2nc(-c3ccco3)cc(C(F)(F)F)n2)n(-c2ccccc2)n1, the Potency was inconclusive [inhibitor, partial curve]. With CCOC(=O)N1CCC(NC(=O)C2CCCN(Cc3nc(-c4cccc(Cl)c4)oc3C)C2)CC1 (stereo not drawn) the Potency was active: 5.62 µM. With O=C1NC(c2ccc(Cl)cc2)Nc2ccccc21 (stereo not drawn) the “activity change, negative = inhibition” value was inactive: 13.4%. For Cc1ccc(-n2c(O)c(/C=N/c3ncn[nH]3)c3ccccc3c2=O)cc1, the Potency was inconclusive [inhibitor, partial curve]. In the case of CCOC(=O)C(=NC1CCS(=O)(=O)C1)NNc1cc(Cl)ccc1Cl (stereo not drawn), the Potency is reported as inconclusive [inhibitor, full curve, poor fit]. With Cc1ccc(NC(=O)NNC(=O)c2cc3ccccc3cc2O)cc1C the “activity change, negative = inhibition” value was inactive: 13.2%. With CCOC(=O)c1c(NC(=O)CN2CCN(C)CC2)sc(C(=O)Nc2ccccc2)c1C the Potency was active: 6.31 µM. For COc1cccc(-c2nc(NCc3ccco3)c3ccccc3n2)c1O, the Potency was inconclusive [inhibitor, single point]. For Cc1cccc(N2CCN(C(=O)c3cc(S(=O)(=O)N(C)C)ccc3N3CCCC3)CC2)c1C, the Potency was inconclusive [inhibitor, single point]. With C1=C(CCNc2ncnc3c2cnn3-c2ccccc2)CCCC1 the Potency was inconclusive [inhibitor, single point]. With Cc1csc(NC(=O)CSc2nsc(SCC(=O)Nc3nc(C)cs3)c2C#N)n1 the Potency was inconclusive [inhibitor, partial curve, poor fit]. For O=C(Nc1nc(-c2ccccc2)c(-c2ccccc2)o1)c1ccc(F)cc1, the Potency was inconclusive [inhibitor, single point]. With COc1ccc(C(=O)Nc2nc(CC(=O)NCCc3ccccc3)cs2)cc1 the Potency was active: 10 µM. For Cc1cccc(NC(=O)CCC(=O)N/N=C/c2ccc(O)cc2O)c1, the Potency was inconclusive [inhibitor, partial curve]. With O=C(O)c1cccc(NC(=O)c2ccccc2NC(=O)c2ccccc2F)c1 the Potency was active: 0.891 µM. For COc1ccc(OC)c(/C=N/NC(=O)c2cc3c(OC)c(OC)ccc3[nH]2)c1, the Potency was inconclusive [inhibitor, partial curve]. In the case of COc1ccc(/C=C2\CCc3ccccc3C2=O)cc1Cn1cccn1, the Potency is reported as inconclusive [inhibitor, single point]. In the case of O=C(Nc1ccc(Cc2ccncc2)cc1)c1ccc(S(=O)(=O)N2CCOCC2)cc1, the Potency is reported as inconclusive [inhibitor, full curve]. In the case of CCOC(=O)c1ccccc1NC(=O)CN(c1ccccc1OCC)S(C)(=O)=O, the “activity change, negative = inhibition” value is reported as inactive: 18.1%.
% is set by controls: 0 for no effect and ±100 for the full control effect; potency is the fitted concentration of half-maximal effect; tags give direction and shape of the fitted curve.
